Measured values as given in the supplement of paper PMC12217912.
The list shows a part of the results. Sequences were assembled here from the parent chain. Inactive controls read about 0.05.

B1: TEV protease; numbered along this chain (parent)
chain: MGESLFKGPRDYNPISSSICHLTNESDGHTTSLYGIGFGPFIITNKHLFRRNNGTLVVQSLHGVFKVKDTTTLQQHLVDGRDMIIIRMPKDFPPFPQKLKFREPQREERICLVTTNFQTKSMSSMVSDTSCTFPSGDGIFWKHWIQTKDGQCGSPLVSTRDGFIVGIHSASNFTNTNNYFTSVPKNFMELLTNQEAQQWVSGWRLNADSVLWGGHKVFMVKPEEPFQPVKEATQL

Variants of: B1
Experiment: raw area under fraction-flipped curve 0-4 h after induction (AUC4h, not background-subtracted), DNA-recorder readout of cleavage of the substrate (dimensionless); higher = more cleavage of the substrate by the protease variant
Details: temperature: 34 °C; time window: 0-4 h after rhamnose induction
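Also: Bxb1 expression induced with 0.2% (w/v) L-rhamnose at OD600 near 0.5, cultures sampled hourly, flipped fraction per protease–substrate barcode pair counted by paired-end Illumina sequencing.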

Variant	area with substrate ENLYFCS	area with substrate ENLYFDS	area with substrate ENLYFFS	area with substrate ENLYFGS	area with substrate ENLYFIS	area with substrate ENLYFMS	area with substrate ENLYFNS	area with substrate ENLYFPS	area with substrate ENLYFSS	area with substrate ENLYFTS	area with substrate ENLYFVS	area with substrate ENLYFES	area with substrate ENLYFKS	area with substrate ENLYFRS	area with substrate ENLYFYS	area with substrate ENLYFHS	area with substrate ENLYFLS	area with substrate ENLYFWS
H29Y	0.0649	0.0634	0.0587	0.0576	0.0538	0.0692	0.0589	0.0748	0.0528	0.0596	0.0619	–	–	–	–	–	–	–
R81I	0.0544	–	0.0711	–	0.0408	0.0464	0.062	0.0666	–	0.056	–	0.0555	0.0669	0.0603	0.075	–	–	–
T44L	0.0523	0.0538	0.0682	0.0546	0.0588	0.0525	0.0565	0.0563	0.0546	–	0.0852	0.0558	–	0.0509	–	0.0354	0.0709	0.0346
C20A	0.0521	0.0474	0.059	0.066	0.0538	–	0.0664	0.0594	–	0.0546	0.0735	0.0594	0.0669	0.0635	0.0574	–	–	0.0583
G63F	0.0539	0.0404	0.0654	0.0628	0.0574	0.0607	0.0573	0.053	0.0295	0.0603	0.0715	–	0.0503	–	–	–	–	0.0511
G35M	0.0331	–	–	–	–	0.0569	–	–	–	–	0.0488	–	–	–	–	–	–	–
S18Y	0.0539	0.0481	–	–	0.057	0.073	–	0.0466	0.0558	–	–	0.0628	0.067	0.0524	0.0604	–	–	0.0651
T55I	0.042	0.0593	0.0816	–	0.0491	–	0.0736	0.0566	0.0612	0.0549	–	–	0.0595	0.056	–	0.0546	–	0.0576
L99S	0.0485	0.0612	0.055	–	0.0585	0.0495	0.0581	0.0572	–	0.0508	0.0496	–	0.0488	0.0542	–	–	–	0.0592
H62N	0.0471	–	0.0761	–	0.0615	0.0324	–	–	0.065	0.0497	–	0.0648	–	0.059	0.044	–	0.0587	0.0675
K66R	0.0575	0.0616	0.0637	0.0597	0.0551	0.0823	0.0685	0.0554	0.0672	0.0664	–	0.0716	0.0471	0.0583	–	–	0.0507	0.0429
T31C	0.0622	0.0581	0.0691	0.0579	0.0563	0.064	0.057	0.0483	0.0583	0.0548	0.0545	0.0706	0.0614	0.0582	0.058	0.0721	0.0578	0.0539
N52I	0.0493	–	–	–	0.0509	0.0679	–	0.0554	–	–	–	0.0512	–	–	–	0.0533	–	–
N52S	0.0558	–	0.0537	0.0552	0.0316	0.0638	0.056	–	0.0627	0.0589	0.0033	0.0784	–	0.0582	0.0598	0.0571	–	0.0585
